Laboratory results: article PMC7949153
These are yes or no findings as the source states them, for the method shown. Some binding calls cover weakened binding; strength is not graded here.

The chains behind the UniProt entries cited, without tags or fusion partners. Where a name states a change or a piece, a line headed by the entry shows the natural chain unless it says otherwise. Residues count along the entry.
UniProt Q06609: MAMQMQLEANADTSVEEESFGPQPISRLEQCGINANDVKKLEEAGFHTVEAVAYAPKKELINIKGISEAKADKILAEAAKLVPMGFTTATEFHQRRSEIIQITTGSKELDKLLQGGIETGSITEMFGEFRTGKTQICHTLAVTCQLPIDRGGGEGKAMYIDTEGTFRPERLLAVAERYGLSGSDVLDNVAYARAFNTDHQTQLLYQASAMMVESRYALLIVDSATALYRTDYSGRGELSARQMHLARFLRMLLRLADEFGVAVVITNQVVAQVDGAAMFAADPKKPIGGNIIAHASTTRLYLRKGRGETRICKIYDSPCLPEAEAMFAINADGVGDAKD
UniProt Q9NXL9: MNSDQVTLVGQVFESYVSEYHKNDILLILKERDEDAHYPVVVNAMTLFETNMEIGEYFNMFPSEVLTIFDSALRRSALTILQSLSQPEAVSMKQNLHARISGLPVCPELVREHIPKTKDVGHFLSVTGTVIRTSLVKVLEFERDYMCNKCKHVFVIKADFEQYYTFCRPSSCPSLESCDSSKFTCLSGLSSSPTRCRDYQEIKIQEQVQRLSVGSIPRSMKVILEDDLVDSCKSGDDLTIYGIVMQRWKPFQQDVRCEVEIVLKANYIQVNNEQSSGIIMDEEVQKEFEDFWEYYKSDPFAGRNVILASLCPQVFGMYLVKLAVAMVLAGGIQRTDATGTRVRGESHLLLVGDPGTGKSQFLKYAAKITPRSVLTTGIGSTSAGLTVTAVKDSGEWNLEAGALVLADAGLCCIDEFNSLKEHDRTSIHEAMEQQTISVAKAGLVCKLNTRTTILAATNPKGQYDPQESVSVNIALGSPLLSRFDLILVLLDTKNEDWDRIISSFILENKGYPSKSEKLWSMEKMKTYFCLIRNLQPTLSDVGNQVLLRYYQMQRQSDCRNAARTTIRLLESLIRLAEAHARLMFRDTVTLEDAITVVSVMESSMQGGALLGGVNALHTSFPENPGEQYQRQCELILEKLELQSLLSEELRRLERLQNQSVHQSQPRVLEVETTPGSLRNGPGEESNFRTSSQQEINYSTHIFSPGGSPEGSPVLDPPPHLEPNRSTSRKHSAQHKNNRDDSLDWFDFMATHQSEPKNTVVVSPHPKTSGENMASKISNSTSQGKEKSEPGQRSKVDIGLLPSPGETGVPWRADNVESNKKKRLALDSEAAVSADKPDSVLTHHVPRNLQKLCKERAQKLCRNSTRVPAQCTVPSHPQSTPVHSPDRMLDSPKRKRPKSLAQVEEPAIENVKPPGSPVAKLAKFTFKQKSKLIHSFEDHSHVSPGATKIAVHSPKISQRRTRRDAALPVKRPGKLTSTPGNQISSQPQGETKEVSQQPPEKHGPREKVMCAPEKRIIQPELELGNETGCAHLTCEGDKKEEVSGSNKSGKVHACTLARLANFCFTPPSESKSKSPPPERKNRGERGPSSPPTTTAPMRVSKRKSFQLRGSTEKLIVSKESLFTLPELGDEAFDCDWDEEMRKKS
MCM9 C-term (620-1143) in pGBKT7 (yeast two-hybrid fusion): residues 620-1143 of Q9NXL9
MCM9 (643-900), C-terminal extension (CTE) truncation: residues 643-900 of Q9NXL9

Experiments:
GST-tagged RAD51 = GST-tagged RAD51 (UniProt Q06609); assay: pull-down; GST-RAD51 (4 uM) bound to glutathione agarose on ice, equal molar purified MCM9 (643-900) added for 30 min; at least seven washes with 20 mM HEPES pH 7.5, 75 mM NaCl, 0.1 mM EDTA, 1 mM BME, 10% glycerol; eluted with 10 mM reduced glutathione; SDS-PAGE, Coomassie; both purified
[1] = target: full-length MCM9 (1-1143) BRCv- (F687A/R688A) in pGBKT7 (yeast two-hybrid fusion) (human) (UniProt Q9NXL9); assay: two-hybrid; yeast strain SFY526; MCM9 constructs in pGBKT7, RAD51 in pGADT7; grown on SD/-Trp/-Leu at 30 °C, colony-lift filter beta-galactosidase (X-gal) assay
[2] = target: MCM9 C-term (620-1143) in pGBKT7 (yeast two-hybrid fusion) (human) (UniProt Q9NXL9); assay: as above
[3] = target: full-length MCM9 (1-1143) in pGBKT7 (yeast two-hybrid fusion) (human) (UniProt Q9NXL9); assay: as above
[4] = target: MCM9 C-term (620-1143) BRCv- (F687A/R688A) in pGBKT7 (yeast two-hybrid fusion) (human) (UniProt Q9NXL9); assay: as above

Row | Substance | binding (GST-tagged RAD51) | binding [1] | binding [2] | binding [3] | binding [4]
1 | MCM9 (643-900), C-terminal extension (CTE) truncation (from UniProt Q9NXL9-1 643-900) (domain or fragment) | binds |  |  |  | 
2 | RAD51 in pGADT7 (yeast two-hybrid fusion) (from UniProt Q06609 1-339) |  | no binding | binds | binds | no binding
